Test results published in PubChem BioAssay AID686979 (National Center for Advancing Translational Sciences (NCATS), 2013).
Where “and” joins values, the source holds several entries; their conditions need not be identical. Equal entries are not always repeated. Out of some 420,000 compounds screened, about 50,000 (12%) were called active. Inconclusive results, whose numbers are uncertain, are shown with a selection of clear calls. Calls come from the whole dose curve; as a rule, active = well fitted inhibition curve with a large enough effect; inconclusive = small, poorly fitted or top-dose-only effect; inactive = flat fitted curve, though single readings scatter. Potencies of inconclusive entries are doubtful fits and often do not repeat.

experiment: qHTS for Inhibitors of human tyrosyl-DNA phosphodiesterase 1 (TDP1): qHTS in cells in presence of CPT; details: chicken DT40 Tdp1-/-;hTDP1 cells + 20 nM CPT, ATP luminescence, 48 h; activity change, negative = growth inhibition: at 46.2 µM (top of the series) unless noted; note: nearly all actives have a fitted effect of over 55% in size
In short: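 Chicken DT40 Tdp1-/- cells complemented with human TDP1, 400 cells/well, exposed to compounds plus 20 nM camptothecin for at least 48 h at 37 C; viability read as ATP content by CellTiter-Glo luminescence.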
% is set by controls: 0 for no effect and ±100 for the full control effect; potency is the fitted concentration of half-maximal effect; tags give direction and shape of the fitted curve.

Row | Compound | Potency | activity change, negative = growth inhibition
1 | CCOC(=O)C1=C[C@@H](C(C)C)N(S(=O)(=O)c2ccc(C)cc2)[C@H]1c1ccc(C(C)C)cc1 | inconclusive: 20.6 µM [inhibitor, single point] | –
2 | Cc1nc2scc(-c3ccccc3)c2c(=O)o1 | inactive | –
3 | COc1ccc(N(CC(=O)Nc2cccc(SC)c2)S(C)(=O)=O)cc1Cl | inactive | –
4 | O=C(C(=O)N1CCC(Cc2ccccc2)CC1)c1ccccc1 | inconclusive: 29.1 µM [inhibitor, single point] | –
5 | COc1ccc(CCn2c(C3CCCCC3)nc3c(c(=O)c4ccccc4n3C)c2=O)cc1OC | inconclusive: 29.1 µM [inhibitor, single point] | –
6 | CCCNC(=O)c1onc(CS(=O)(=O)c2cc(C)cc(C)c2)c1C(=O)NCCC | inconclusive: 29.1 µM [inhibitor, single point] | –
7 | CC(C)CNc1nc(SCC(=O)Nc2ccccc2)nc(N2CCOCC2)n1 | – | inconclusive: -30.6% [inhibitor]
8 | CCOc1cc(OCC)cc(C(=O)NCCCN2CCOCC2)c1 | inactive | –
9 | CCn1c(SCC(=O)N/N=C(/C)c2ccncc2)nc2ccccc21 | inactive | –
10 | COc1ccccc1NC(=O)C1=C(C)Nc2nc(SCc3ccc(Cl)cc3)nn2C1c1ccccc1Cl (configuration not stated) | inconclusive: 10.3 µM [inhibitor, partial curve] | –
11 | CCOC(=O)C1CCCCN1C(=O)c1cc2ccc(OC)cc2c2cc(OC)c(OC)cc12 (configuration not stated) | inconclusive: 20.6 µM [inhibitor, single point] | –
12 | CC(NC(=O)C1CCN(C(=O)c2ccc(-n3ccc4ccccc43)s2)CC1)c1ccccc1 (configuration not stated) | inconclusive: 23.1 µM [inhibitor, single point] | –
13 | CC(=O)Nc1cc(-c2ccc(N(C)C)cc2)cn2c(-c3ccc(F)cc3)cnc12 | inconclusive: 29.1 µM [inhibitor, single point] | –
14 | COc1ccc(S(=O)(=O)NC(C)CCc2ccccc2)cc1 (configuration not stated) | inconclusive: 29.1 µM [inhibitor, single point] | –
15 | CCOc1ccccc1N1CCN(S(=O)(=O)CC)CC1 | inactive | –
16 | COc1ccc(NC(=O)C23CC4CC(C2)CC(n2cnc(Br)n2)(C4)C3)c(OC)c1 | inconclusive: 13 µM [inhibitor, partial curve] | –
17 | Cc1ccc(NC(=O)Cn2nnc(-c3nc(-c4ccncc4)no3)c2N)c(C)c1 | inactive | –
18 | OC[C@H]1OC(O)[C@H](O)[C@@H]1O (some centres not stated) | inactive | –
19 | COc1cc(-c2nnc(Cn3cc(C(F)(F)F)ccc3=O)o2)cc(OC)c1OC | inconclusive: 25.9 µM [inhibitor, single point] | –
20 | Cc1cc(C)c(C)c(S(=O)(=O)N2CCN(C(=O)c3ccc4c(=O)n5c(nc4c3)CCC5)CC2)c1C | inconclusive: 16.4 µM [inhibitor, partial curve] | –
21 | CC1CCN(C(=O)c2cc3c(=O)n(C)c4ccccc4c3s2)CC1 | active: 11.6 µM | –
22 | O=C(c1cc(-c2ccccc2)n[nH]1)N1CCN(S(=O)(=O)c2ccccc2)CC1 | inconclusive: 7.31 µM [inhibitor, partial curve] | –
23 | CCOc1ccc(OC(=O)c2cn(-c3cccc(OC)c3)c(=O)c3ccccc23)cc1 | inconclusive: 10.3 µM [inhibitor, partial curve] | –
24 | CCOC(=O)C1CCN(C(=O)CN2c3ccc(C(C)C)cc3-c3ccccc3S2(=O)=O)CC1 | active: 20.6 µM | –

Row | Compound | Potency | activity change, negative = growth inhibition
25 | COc1c(C)cc(C(O)c2ncc(-c3ccc(Cl)cc3)[nH]2)cc1C (configuration not stated) | inconclusive: 18.4 µM [inhibitor, single point] | –
26 | Fc1ccc(Nc2nc(NCc3cccs3)nc3ccsc23)cc1 | inconclusive: 20.6 µM [inhibitor, single point] | –
27 | COc1ccc(CCN(C)CCC(=O)Nc2cccc(C)c2)cc1OC | inactive | –
28 | CCOc1ccc2[nH]c3c(NCCO)ncnc3c2c1 | inactive | –
29 | CCCCC[C@H](O)/C=C/[C@H]1[C@H](O)CC(=O)[C@@H]1CCCCCCC(=O)O | inconclusive: 14.3 µM [inhibitor, single point] | –
30 | CCC(=O)Nc1ccc2c(c1)nc(CCNC(=O)c1ccco1)n2C | inactive | –
31 | O=c1[nH]c(N2CCN(c3ccccc3)CC2)nc2c1CCCC2 | inconclusive: 16.4 µM [inhibitor, single point] | –
32 | O=c1n(Cc2ccc(F)cc2)nc2n1-c1ccccc1SC2 | inconclusive: 29.1 µM [inhibitor, single point] | –
33 | CCOC(=O)[C@H]1[C@H]2COc3ccc(Br)cc3[C@@H]2N2C(=O)CN(C)C(=O)[C@@]12C | inactive | –
34 | O=C(c1cc([N+](=O)[O-])ccc1N1CCOCC1)N1CCN(c2ccc([N+](=O)[O-])cc2)CC1 | active: 13 µM | –
35 | O=C(Nc1cccc(C(F)(F)F)c1)c1ccc(-c2ccc(F)c(F)c2)c2ccoc12 | inconclusive: 29.1 µM [inhibitor, single point] | –
36 | CCOC(=O)c1c(NC(C)=O)c2c3c(sc2n1Cc1ccc(Cl)cc1)CCCC3 | inconclusive: 18.4 µM [inhibitor, single point] | –
37 | Cc1c(C(=O)OCC(=O)Nc2c(C)n(C)n(-c3ccccc3)c2=O)cccc1[N+](=O)[O-] | inconclusive: 29.1 µM [inhibitor, single point] | –
38 | COCCCNC(=O)CN(c1cccc(Cl)c1)S(C)(=O)=O | inactive | –
39 | COc1ccc2cc(C#N)c(SCC(=O)N3CCCC3)nc2c1 | – | inconclusive: -31% [inhibitor]
40 | COc1ccccc1Nc1nc(N2CCOCC2)nc(N2CCOCC2)n1 | inconclusive: 29.1 µM [inhibitor, single point] | –
41 | O=C(Nc1ccc(F)cc1)C(CCc1ccccc1)N1CCN(Cc2c(F)cccc2Cl)CC1 (configuration not stated) | inconclusive: 25.9 µM [inhibitor, single point] | –
42 | O=C1CCC(=O)N1CO | inactive | –
43 | Cc1ccc(Nc2cc(C)c(O)c(C)c2)cc1 | active: 5.17 µM | –
44 | COCCCNC(=O)CN(C1CCCCC1)S(=O)(=O)c1ccc(C)cc1 | inconclusive: 20.6 µM [inhibitor, single point] | –
45 | O=C(O)CN1C(=O)/C(=C/C=C/c2ccccc2)SC1=S | inconclusive: 29.1 µM [inhibitor, single point] | –
46 | CC(=O)c1cccc(NC(=O)C2=CC(c3ccc4c(c3)OCO4)=NS(=O)(=O)N2C)c1 | inactive and inconclusive: 20.6 µM [inhibitor, single point] | –
47 | COC(=O)c1sccc1NC(=O)/C=C/c1ccc(Cl)cc1Cl | inconclusive: 20.6 µM [inhibitor, single point] | –
48 | O=C1CCCc2c1nc(-c1cccc(Cl)c1)n2O | inactive | –

Row | Compound | Potency | activity change, negative = growth inhibition
49 | Cn1c(=O)c2c(nc(NCc3ccco3)n2C/C=C/c2ccccc2)n(C)c1=O | active: 1.46 µM | –
50 | CCOC(=O)c1nnn(-c2nonc2N)c1COc1c(C=O)cccc1OC | inconclusive: 29.1 µM [inhibitor, single point] | –
51 | COc1ccc(CCNc2nc(-c3ccncc3)cs2)cc1OC | active: 20.6 µM | –
52 | COc1ccccc1CNC(=O)CCC1N=C2c3ccccc3N=C(SCC(N)=O)N2C1=O (configuration not stated) | active: 29.1 µM | –
53 | CCCn1c(SCC(=O)NC(C)(C)C)nnc1C(C)C | inactive | –
54 | CC1CCCCN1CCCNC(=O)c1[nH]c2ccccc2c1Sc1ccc(Cl)cc1 (configuration not stated) | active: 10.3 µM | –
55 | CCSc1nc(-c2ccc(OC)cc2)n(-c2nc3ccccc3s2)n1 | – | inconclusive: -30.1% [inhibitor]
56 | Cc1cccc(CNC(=O)C(=O)Nc2ccccc2C)c1 | inactive | –
57 | O=C(Cc1ccccc1)n1nc(-c2ccco2)nc1SCc1ccccc1 | inconclusive: 25.9 µM [inhibitor, single point] | –
58 | O=C(NCc1ccc2c(c1)OCO2)c1cc2ccccc2oc1=O | inactive | –
59 | O=C(NN=Cc1ccccc1O)C1CC1 | active: 5.8 µM | –
60 | CCCn1c(C(Cc2ccccc2)NC(=O)COC)nc2ccccc21 (configuration not stated) | inconclusive: 29.1 µM [inhibitor, single point] | –
61 | CC(Oc1ccc(Br)cc1)C(=O)Nc1cc(S(=O)(=O)N2CCOCC2)ccc1N1CCCC1 (configuration not stated) | inconclusive: 29.1 µM [inhibitor, single point] | –
62 | COc1cccc(C(=O)N2CCN(Cc3ccccc3C(F)(F)F)CC2)c1 | inconclusive: 9.2 µM [inhibitor, partial curve] | –
63 | CCC1=NN(C(=O)C(=O)Nc2ccc(OC)cc2)C(O)(C(F)(F)F)C1 (configuration not stated) | inactive | –
64 | COc1ccc(C)cc1S(=O)(=O)n1cnc2ccccc21 | active: 13 µM | –
65 | CCOC(=O)N1CCN(c2cc3[nH]c(=S)[nH]c3cc2F)CC1 | – | inconclusive: -33.5% [inhibitor]
66 | CCOc1ccc(-c2c(C(=O)N/N=C/c3ccc(C)cc3)nnn2-c2nonc2N)cc1 | active: 1.64 µM | –
67 | COc1cc(SSc2cc(OC)cc([N+](=O)[O-])c2N)c(N)c([N+](=O)[O-])c1 | active: 4.61 µM | –
68 | CC(=O)NC(CC(=O)OC(C)C(=O)Nc1ccc(Cl)cn1)c1ccccc1 (configuration not stated) | inactive | –
69 | Cc1ccc(S(=O)(=O)NCC(c2ccc(N(C)C)cc2)N2CCc3ccccc32)cc1C (configuration not stated) | inconclusive: 29.1 µM [inhibitor, single point] | –
70 | O=C(CNC(=O)C1CCCCC1)Nc1cc(Cl)cc(Cl)c1 | – | inconclusive: -31.9% [inhibitor]
71 | CCN1C(=O)c2ccccc2Sc2ccc(NC(=O)Nc3ccccc3OC)cc21 | inconclusive: 18.4 µM [inhibitor, single point] | –
72 | COC(=O)Cc1c(C)c2cc3c(c(C)c2oc1=O)OCN(CCc1ccccc1F)C3 | inconclusive: 13 µM [inhibitor, partial curve, poor fit] | –
